# Data from PubChem BioAssay AID2675 (National Center for Advancing Translational Sciences (NCATS), 2010).
# About 100 (0.036%) of roughly 280,000 compounds were called active. Inconclusive means that the source gave no clear call. Such entries were picked first, then a sample of the others. Calls follow the shape of the dose curve; as a rule, active = well fitted inhibition curve with a large enough effect in the signal ratio, with a control signal flat (not every such curve was filed as active); inconclusive = small, poorly fitted or top-dose-only effect, or effect the other way, or a change in a side signal; inactive = no such curve, though single readings can be large or run the other way; the % refers to the signal ratio. A potency beside an inconclusive call is a rough fit, not a confirmed value. A note “side channel” means that the fit belongs to a control or component signal, not to the main read-out.
# Molecular target: Muscleblind-like protein 1 (Homo sapiens) (UniProt Q9NR56)
# Test: qHTS Assay for Inhibitors of MBNL1-poly(CUG) RNA binding
# Details: TR-FRET MBNL1-His/biotin-(CUG)12 binding, 665/545 ratio; series mostly up to 57.5 µM
# Outline: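 Compounds (final 92 nM to 58 uM) are added to His-tagged MBNL1 and biotin-(CUG)12, then terbium anti-His antibody and streptavidin-XL665 (5 nM final). After 60 min at room temperature, the 665/545 nm ratio is read.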
# Potency is read from the fitted curve at half-maximal effect; tags tell the direction and shape of the fitted curve or compound fluorescence and quenching.
# Chain of UniProt Q9NR56 (Q9NR56 whole entry, looked up): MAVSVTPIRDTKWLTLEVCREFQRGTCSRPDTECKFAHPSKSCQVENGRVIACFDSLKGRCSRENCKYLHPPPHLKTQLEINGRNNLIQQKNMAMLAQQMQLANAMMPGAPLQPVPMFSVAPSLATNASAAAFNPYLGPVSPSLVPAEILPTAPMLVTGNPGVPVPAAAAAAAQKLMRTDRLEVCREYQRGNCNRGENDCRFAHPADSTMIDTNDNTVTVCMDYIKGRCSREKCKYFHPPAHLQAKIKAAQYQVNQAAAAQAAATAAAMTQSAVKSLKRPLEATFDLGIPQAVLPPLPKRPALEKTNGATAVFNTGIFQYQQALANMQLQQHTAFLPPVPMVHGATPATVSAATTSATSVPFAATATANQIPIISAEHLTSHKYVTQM
row,SMILES,Potency
1,Nc1cccc(Oc2ccc([N+](=O)[O-])cc2)c1,"inconclusive: 12.6 µM [quencher, side channel, partial curve]"
2,O=C(Nc1c2c(nn1-c1ccc([N+](=O)[O-])cc1)CS(=O)(=O)C2)c1cccs1,"inconclusive: 0.708 µM [quencher, side channel, full curve, poor fit]"
3,O=C(CCC(=O)N1CCOc2ccc(Cl)cc21)NCCCN1CCC(Cc2ccccc2)CC1,inactive
4,COc1ccc([N+](=O)[O-])cc1/C=N/Nc1nn[nH]n1,"inconclusive: 6.31 µM [quencher, side channel, partial curve]"
5,CCP(=O)(c1cccc([N+](=O)[O-])c1)c1cccc([N+](=O)[O-])c1,"inconclusive: 11.2 µM [quencher, side channel, partial curve]"
6,COc1ccc(CNC(=O)CN(c2cccc([N+](=O)[O-])c2)S(C)(=O)=O)cc1,"inconclusive: 28.2 µM [quencher, side channel, single point]"
7,COc1ccccc1NS(=O)(=O)c1cc(NC(=O)c2ccc(=O)[nH]c2)ccc1N1CCOCC1,"inconclusive: 126 µM [inhibitor, single point]"
8,CCC1CCCCN1CCCNC(=O)CNC(=O)c1nn(-c2ccc(OC)c(Cl)c2)c(=O)c2ccccc12 (stereo not given),"inconclusive: 14.1 µM [quencher, partial curve]"
9,COc1cc(/C=C/C(=O)c2ccc3c(c2)OCCO3)cc(Br)c1OCC(=O)N(C)C,inactive
10,O=C1Cc2ccccc2C(=O)N1CCc1ccccc1,"inconclusive: 50.1 µM [inhibitor, single point]"
11,O=S(=O)(NCc1ccccc1)c1ccc(Br)s1,inactive
12,N#Cc1c2c(c[nH]c1=O)CCN2Cc1ccccc1,"inconclusive: 200 µM [inhibitor, partial curve, poor fit]"
13,Cc1ccc(C(=O)COc2ccccc2-c2ccccc2)cc1C,"inconclusive: 0.1 µM [fluorescent, side channel, full curve, poor fit]"
14,COc1ccc(S(=O)(=O)N(C)c2ccc(C(=O)N3CCOCC3)cc2)cc1,inactive
15,COc1cc(/C=N/NC(=O)c2ccc3c(c2)OCCO3)cc(Cl)c1O,"inconclusive: 15.8 µM [quencher, side channel, partial curve]"
16,COC(=O)c1ccsc1NC(=O)CCc1ccccc1,inactive
17,Cc1ccc(/C(N)=N/OC(=O)Cc2ccccc2)cc1,"inconclusive: 10 µM [quencher, side channel, partial curve]"
18,CCN(CC)C(=O)Cn1cnc2sc(C(=O)NCCCN3CCOCC3)c(C)c2c1=O,inactive
19,CC1CCc2sc(C(=O)NN=C3CCC(c4ccccc4)CC3)cc2C1 (stereo not given),"inconclusive: 79.4 µM [inhibitor, partial curve]"
20,COc1ccc(CCNC(=O)C2CC3Cn4c(nc5cc(Cl)c(Cl)cc54)C3N2C)cc1 (stereo not given),inactive

row,SMILES,Potency
1,CN(C)S(=O)(=O)c1cccc2nsnc12,"inconclusive: 17.8 µM [quencher, side channel, partial curve]"
2,CCOc1ccc(-n2c(-c3ccc(OC)cc3)c[n+]3c2CCCCC3)cc1,inactive
3,Cc1ccc2nc3c(cc(C(=O)NC4CCCCC4)c(=N)n3C3CCCCC3)c(=O)n2c1,"inconclusive: 35.5 µM [quencher, single point]"
4,Cc1cc(N2CCN(C)CC2)nc2ccc(NC(=S)N3CCN(c4ccc(Cl)cc4)CC3)cc12,"inconclusive: 79.4 µM [inhibitor, single point]"
5,Cc1cccn2cc(COc3cccc([N+](=O)[O-])c3)nc12,"inconclusive: 3.16 µM [quencher, side channel, full curve]"
6,C=CCN(c1ccc(C(=O)Nc2ccc3c(c2)n(C)c(=O)n3C)cc1)S(C)(=O)=O,inactive
7,CCOC(=O)N1CCN(C(=O)c2ccc(Cn3c(=S)[nH]c4cc5c(cc4c3=O)OCO5)cc2)CC1,inactive
8,CN(C)S(=O)(=O)c1cccc(NC(=O)c2ccc(Sc3nncn3C)c([N+](=O)[O-])c2)c1,"inconclusive: 6.31 µM [quencher, side channel, partial curve]"
9,CC1=NN(c2ccc(Cl)c(C(=O)O)c2)C(=O)/C1=C\c1ccc(-c2ccc(C(=O)O)cc2)o1,inactive
10,COC(=O)c1ccc(OCCCCN2CC(C)OC(C)C2)cc1 (stereo not given),inactive
11,CCCOc1ccc(N2C(=O)CC(NCc3cccs3)C2=O)cc1 (stereo not given),"inconclusive: 8.91 µM [quencher, side channel, single point]"
12,O=C(Nc1ccccc1)c1cccc(=O)o1,"inconclusive: 14.1 µM [quencher, side channel, partial curve]"
13,CCC[N+]1(CC#CC(O)(c2ccccc2)C2CCCCC2)CCCCC1 (stereo not given),inactive
14,Cc1cc(C)c2c3c(sc2n1)C(=O)N(c1ccccc1)CC(=O)N3,"inconclusive: 39.8 µM [quencher, side channel, single point]"
15,CCOC(=O)C1=C(C)NC(SCC(=O)Nc2nc(C)cs2)=C(C#N)C1c1cccs1 (stereo not given),"inconclusive: 39.8 µM [quencher, side channel, single point]"
16,Oc1ccccc1/C=N/n1c(COc2ccccc2)n[nH]c1=S,inactive
17,Cc1ccc(CNC(=O)C(NS(=O)(=O)c2cccc3nsnc23)C(C)C)cc1 (stereo not given),"inconclusive: 8.91 µM [quencher, side channel, partial curve]"
18,COc1cccc(C2=Nc3cccc4cccc(c34)N2)c1,"inconclusive: 31.6 µM [quencher, side channel, single point]"
19,O=C(NCc1ccccc1)c1cccc(COc2cc(Cl)ccc2Cl)c1,"inconclusive: 0.126 µM [fluorescent, side channel, full curve, poor fit]"
20,CN(CC(=O)O/N=C(\N)c1ccc([N+](=O)[O-])cc1)S(=O)(=O)c1ccccc1,"inconclusive: 15.8 µM [quencher, partial curve]"

row,SMILES,Potency
1,CCc1cc2c(-n3nc(C)cc3C)ncnc2s1,"inconclusive: 0.501 µM [quencher, side channel, full curve, poor fit]"
2,CCOC(=O)C1CCN(C(=O)c2ccc3nc(-c4ccc(OC)cc4)c(-c4ccc(OC)cc4)nc3c2)CC1,"inconclusive: 22.4 µM [quencher, partial curve]"
3,COc1ccc2cc(CCNC(=O)c3cc4ccccc4o3)c(=O)[nH]c2c1,"inconclusive: 39.8 µM [fluorescent, side channel, single point]"
4,CC(=O)Nc1ccc(-c2csc(N/N=C\c3ccncc3)n2)cc1,"inconclusive: 20 µM [quencher, side channel, partial curve]"
5,NC(=O)c1ccc(NCC2COc3ccccc3O2)c([N+](=O)[O-])c1 (stereo not given),"inconclusive: 12.6 µM [quencher, side channel, partial curve]"
6,O=C(Nc1ccc([N+](=O)[O-])cn1)c1cc(-c2cccc(Cl)c2)nc2ccccc12,"inconclusive: 25.1 µM [fluorescent, side channel, single point]"
7,CCOCCCn1c(C)nc2c[n+](CC(=O)c3ccc4ccccc4c3)cc(Br)c21,"inconclusive: 17.8 µM [quencher, side channel, partial curve]"
8,CN(C)c1ccc(/C=N/NC(=O)c2ccc3c(c2)OCCO3)cc1,"inconclusive: 15.8 µM [quencher, side channel, partial curve]"
9,Cc1ccc(S(=O)(=O)N(CC(O)CN2C(=O)NC(C)(C)C2=O)c2cccc([N+](=O)[O-])c2)cc1 (stereo not given),"inconclusive: 14.1 µM [quencher, side channel, partial curve]"
10,Cc1nc(SCCC(C)C)c([N+](=O)[O-])[nH]1,"inconclusive: 22.4 µM [quencher, side channel, partial curve]"
11,COc1ccc(CNC(=O)CCCNS(=O)(=O)c2cccc3nonc23)cc1,"inconclusive: 7.94 µM [quencher, side channel, partial curve]"
12,O=C(CBr)c1ccc([N+](=O)[O-])c(CS(=O)(=O)c2ccc(Cl)cc2)c1,"inconclusive: 28.2 µM [quencher, side channel, partial curve]"
13,N#Cc1cc(-c2ccc(Cl)cc2)cnc1Sc1ccc(F)cc1,inactive
14,CCCCN(C)c1ccc([N+](=O)[O-])cc1,"inconclusive: 17.8 µM [quencher, partial curve]"
15,O=C(c1ccc([N+](=O)[O-])s1)N1CCCc2ccccc21,"inconclusive: 15.8 µM [quencher, side channel, partial curve]"
16,Cc1c(C(=O)O)cccc1-c1ccc(/C=C2/NC(=O)N(c3ccccc3)C2=O)o1,"inconclusive: 15.8 µM [quencher, side channel, partial curve]"
17,Brc1cc(Br)c2nc3c(cc2c1)CCC3,"inconclusive: 28.2 µM [fluorescent, partial curve]"
18,O=C(Cc1cc(=O)[nH][nH]1)N/N=C/C=C/c1ccccc1,"inconclusive: 28.2 µM [quencher, side channel, partial curve]"
19,O=C1CS/C(=C\[N+](=O)[O-])N1c1ccc(OC(F)(F)F)cc1,"inconclusive: 12.6 µM [quencher, side channel, partial curve]"
20,COc1ccc(C(C(=O)NC2CCCC2)N(Cc2ccccc2)C(=O)c2snc(C(N)=O)c2N)cc1OC (stereo not given),"inconclusive: 12.6 µM [quencher, side channel, partial curve]"
